# Experimental data reported in the supplement of paper PMC11417369.
# ± gives the standard deviation of the averaged measurements. The list shows a part of the results.
# Test system: PfAP2-LT AP2 domain (GST-tagged)
# Test: gcPBM binding intensity (ln(normalized median fluorescence intensity)); higher = stronger DNA binding
# In short: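 Each value is the highest Masliner-normalised natural-log median intensity across replicate spots of either orientation of a probe. The probes were primer-extended double-stranded 36-bp intergenic genomic sequences on an Agilent 4 × 180k array, alongside negative controls, exposed for 1 h to GST-tagged P. falciparum DNA-binding domains expressed in E. coli. Bound protein was picked up with Alexa488 anti-GST antibody and scanned at 488 nm.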
row,Sequence,gcPBM binding intensity (ln)
1,ACATATTTCCAATAATGTACATACAAAATAAGAATG [XGTACX_site2659],8.79 ± 0.45
2,TTTTTTTCTTTTTTTTGTACTCATACATACTATCAT [XGTACX_site607],8.78 ± 0.58
3,GTAGTAATAAATCTAGTGCATTATATATAACAAAAA [GTGCAC_site9803],8.85 ± 0.54
4,AAAATATATCAAAATAGTACATAATTTTTTAAGAAT [XGTACX_site3515],8.64 ± 0.54
5,AAAAATGTGCACACGCGTACACACAAAAAAAGAAAA [XGTACX_site4097],9.42 ± 0.3
6,AGTTATGCATCTTAGGTGCTATGCCCAATTTATTTT [GTGCAC_site9977],8.85 ± 0.49
7,TTGCCTTAAAAAGGAACACACATGCTTTTTTTAGTT [CACACA_site938],8.77 ± 0.47
8,AAAAAAAAAAAAAATGCACACATATATTTCCATATA [CACACA_site8416],8.95 ± 0.29
9,AACTTACTCTTTACAAGTACGTAAAAGAAATAGAAA [XGTACX_site1782],8.49 ± 0.51
10,AATAAAGCAATAAATACACACATATATATATATATA [CACACA_site2934],9.955 ± 0.0071
11,TATATAAAAAATAGGTGGTCAACTTAAATATTTTAT [XGTACX_site4495],8.63 ± 0.42
12,TATTGCCCTTGACACACACACATATAAATAAATATA [CACACA_site7220],9.34 ± 0.44
13,TAAGGTTAAATAATATGTACATATTATTATATATAT [XGTACX_site6953],8.66 ± 0.39
14,TTATGGGACTCAAATACATGCAAAAATATTTTTAAG [TGCATGCA_site559],8.5 ± 0.51
15,AAATATGTATATATATATATATATATATATATATAT [GTGCAC_negctrl_site335],9.97 ± 0.29
16,TTAAACCGTGGGAGCACACACACACCCAGACACATA [CACACA_site4337],9.7 ± 0.31
17,GTATATATACATAAATGTACATATATATAAAAAATG [XGTACX_site3271],8.91 ± 0.41
18,AATATATAAGTCTACTGTACCCAAAATAAAATTTAT [XGTACX_site8727],8.7 ± 0.35
19,AAATAAGAACATAGAATGCACTTTTTTTTTTTTTCC,8.49 ± 0.5

row,Sequence,gcPBM binding intensity (ln)
1,AACATTATAAGACACACACACACATATATAAATATA [CACACA_site6622],10.2 ± 0.38
2,ATATATTTATATATTGCACACAAAAAAAAAAAAAAA [CACACA_site8468],8.76 ± 0.28
3,AAATATAATAAAATGACACACGCATATATATATATA [CACACA_site8900],9.775 ± 0.064
4,ATATATCCAAATAGATTACATATATATATATAGATA [TGCATGCA_negctrl_site277],8.73 ± 0.35
5,GGATATATGAAACATATTGAAAAACCGTTTAGTACA [CACACA_negctrl_site132],8.83 ± 0.51
6,GTAATTATATACATACGTACATACACATATGTATAT [XGTACX_site4149],9.03 ± 0.41
7,TTATATGAAAATTATTGTACAATCTATAAAAAAAAT [XGTACX_site4194],8.41 ± 0.42
8,TTACTATGTAAACACACATGCAATATATGTTAAGCC [TGCATGCA_site253],9.07 ± 0.4
9,TAATAATCAAACTATACACACATAAATAAATATATA [CACACA_site156],9.04 ± 0.4
10,AAGGAAATAAGAAAAAGTACACATAAGTATATAACA [XGTACX_site1173],9.04 ± 0.45
11,CACGTGTAAATAGTTTTACAATATCTCGATATGTAT [CACACA_negctrl_site785],8.83 ± 0.41
12,TGTCAAAATATGTATACACACAATTTTTTTTTTTTT [CACACA_site2465],8.8 ± 0.4
13,ATTCATTTACCAATGGTGCAATATATTTTTATAATG,8.63 ± 0.38
14,TATATTACTTATATTTGTACACAGAAATATAAATCA [XGTACX_site13],8.44 ± 0.35
15,TAATAAATAAAATAGAGTACAGGGATTTCATTAAAT [XGTACX_site8979],8.69 ± 0.52
16,TTTTTCATAAGAAGCACACAAAAAATGATAGAGAAT [CACACA_site1417],8.94 ± 0.37
17,TAATATGCATAAAATTGTACAAACTTACATATAATA [XGTACX_site2752],8.92 ± 0.45
18,TTTTCTTGACCTATTATTCTTCTCATAGTATAATAT [GTGCAC_negctrl_site641],8.78 ± 0.4
19,TTCATAGAATTATATATTTTAAAAAAAAAAATAATT [CACACA_negctrl_site175],8.12 ± 0.42

row,Sequence,gcPBM binding intensity (ln)
1,TTTTTTATAGGACATGCATGTTGTAGAGCTGTATAT [TGCATGCA_site704],8.8 ± 0.39
2,AATATATTTTAATATACACACATATATGCTCTTTAA [CACACA_site9371],8.88 ± 0.5
3,TTATTTTTTTTGTGTTGTACAATTTATTACTACTAA [XGTACX_site346],8.83 ± 0.47
4,AAACAAATATGTAGCACACATTCACATAATATATTT [CACACA_site2335],9.08 ± 0.44
5,TTATTTATGTGTAGGGCATGCAATCGTGTTTTTAAA [TGCATGCA_site735],8.82 ± 0.34
6,GTATTTATAATACGGCGTACATAAAAAAAAAAAAAA [XGTACX_site3705],8.54 ± 0.46
7,TGAAATACGAATTATTGTACTTATGTGTAAGATGGC [XGTACX_site4472],8.83 ± 0.45
8,AAAGAAAGTACCTTCACACATATAAGAATATAATAT [CACACA_site5214],8.85 ± 0.49
9,AAAAAAAAAATATATTGTACAAATAGATATGTCAAT [XGTACX_site122],8.92 ± 0.4
10,AAAAAAAAAAAAAAAAGTACACAGTAGAATTAAATG [XGTACX_site1843],8.73 ± 0.48
11,TTTTTTTTTTAATTAACACACATAAATATATATATA [CACACA_site3275],8.6 ± 0.38
12,ATAAGTAAATTAGATACACACATGATATCATACATA [CACACA_site1623],9.03 ± 0.45
13,GAACAATAAATAAAAAAAATAAAAATAAAAATAAAA [TGCATGCA_negctrl_site35],8.57 ± 0.75
14,AGAAAAAAATAATGTACACACACATAGATGTTTATA [CACACA_site4271],9.2 ± 0.36
15,TCAATAATAACAAATGAACACACATATATATGAGCA [CACACA_site8663],9.06 ± 0.38
16,AATATATTTGTGTATGTGCGCAGTGTGTAATTTATT [GTGCAC_site9765],9.39 ± 0.28
17,CATCTCATATTTTGAAGTACTAAGAAAAGATATAAA [XGTACX_site6867],8.38 ± 0.44
18,ACGTAATTAATTCATCAGATATAATTAATAATAATA [XGTACX_negctrl_site550],8.66 ± 0.36
19,ACTAAAGTGTATCACTGTACAATTCTTCTCTTTTTT [XGTACX_site8705],8.75 ± 0.49
